Laboratory results from PubChem BioAssay AID504832 (National Center for Advancing Translational Sciences (NCATS), 2011).
Several values for one entry are separate records, joined by “and”; a condition that tells them apart may be missing. Equal values may be shown once. The whole screen tested about 310,000 compounds, of which about 18,000 (5.8%) were called active. Inconclusive results, whose numbers are uncertain, are shown with a selection of clear calls. Calls come from the whole dose curve; as a rule, active = well fitted inhibition curve with a large enough effect; inconclusive = small, poorly fitted or top-dose-only effect, or another doubt; inactive = no such curve, though single readings can be large or run the other way. No potency is given beside an inconclusive call; the fits are too rough.

Test: Primary qHTS for delayed death inhibitors of the malarial parasite plastid, 48 hour incubation
Conditions: P. falciparum luciferase growth in erythrocytes; series mostly up to 28.7 µM; activity change, negative = inhibition: at the top concentration
Summary of the method: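 Luciferase-expressing parasites in RBCs, 2% Hct / 0.1% parasitemia final; RPMI 1640 + 0.5% Albumax; 37 C, 5% CO2, one generation; luminescence read-out, lower signal = inhibition.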
% is set by controls: 0 for no effect and ±100 for the full control effect; potency is the fitted concentration of half-maximal effect; tags give direction and shape of the fitted curve.

Row | Structure (SMILES) | Potency | activity change, negative = inhibition
1 | CCCCC(CC)C(=O)Nc1ccc(S(=O)(=O)Nc2nccs2)cc1 (configuration not stated) | inconclusive [inhibitor, single point] | 
2 | Cc1cc2cc(C(=O)N3CCc4c([nH]c5ccccc45)C3c3ccccn3)ccc2o1 (configuration not stated) | active: 10.4 µM | 
3 | CCNc1nc(Oc2c(Cl)cccc2Cl)cc(C(F)(F)F)n1 | inconclusive [inhibitor, partial curve] | 
4 | CCOC(=O)c1cccc(NC(=O)c2ccc(NC(=O)c3ccco3)cc2)c1 | inconclusive [inhibitor, partial curve, poor fit] | 
5 | CCCC(=O)Nc1ccc2nc(SCC(=O)N3CCCC3)sc2c1 | inconclusive [inhibitor, single point] | 
6 | Clc1ccccc1OCc1nn[nH]n1 |  | inactive: 22.7%
7 | CCCCn1c(N)c(N(Cc2ccccc2OC)C(=O)c2ccc([N+](=O)[O-])s2)c(=O)[nH]c1=O | active: 10.4 µM | 
8 | Cc1cc(C)c2c(c1)/C(=N/NC(=O)c1ccc(O)cc1)CCC2 | inconclusive [inhibitor, single point] | 
9 | CC(C)(C)C1CCC2(CC1)SCC(=O)N2c1ccccc1 (configuration not stated) | active: 11.7 µM | 
10 | Cc1cc(NC(=O)COc2cccc(Oc3ccccc3)c2)no1 | inconclusive [inhibitor, single point] | 
11 | Clc1ccc(-c2noc(CN3CCCC3)n2)cc1 |  | inactive: 152%
12 | Cc1cc(O)c(NC(=O)c2ccc(Br)o2)cc1C | active: 11.7 µM | 
13 | CCOc1ccccc1N(C)S(=O)(=O)c1ccc2c(c1)CC(C)N2C(=O)C1CC1 (configuration not stated) | inconclusive [inhibitor, partial curve, poor fit] | 
14 | O=C(COC(=O)Cc1ccccc1F)Nc1ccc(SC(F)F)cc1 |  | inactive: 17.2%
15 | CCOCCCN(C)C1CCN(C(=O)c2oc3ccccc3c2NC(=O)c2cccc([N+](=O)[O-])c2)CC1 | inconclusive [inhibitor, single point] | 
16 | CCOc1c(Br)cc(/C=C(\C#N)C(=O)NC2CC2)cc1OC | inconclusive [inhibitor, partial curve, poor fit] | 
17 | O=C(CCN1C(=O)c2ccccc2S1(=O)=O)NCc1ccc(F)cc1 |  | inactive: 3.51%
18 | COc1cccc(NC(=O)C(C)OC(=O)c2n[nH]c3ccccc23)c1 (configuration not stated) | inconclusive [inhibitor, single point] | 
19 | CCc1sc(C(C2C(=O)CC(C)(C)CC2=O)C2C(=O)CC(C)(C)CC2=O)cc1[N+](=O)[O-] |  | inactive: 6.55%
20 | COc1ccc(Cl)cc1NC(=O)Nc1cccc([N+](=O)[O-])c1C | inconclusive [inhibitor, partial curve, poor fit] | 
21 | COc1ccc2nc(N/C(N)=N/C(=S)Nc3cccc(C)c3)nc(C)c2c1 | inconclusive [inhibitor, single point] | 
22 | COCCNC(=O)Cn1nc(-c2ccc(C)cc2)ccc1=O |  | inactive: 1.98%
23 | COc1cc(NC(=O)c2noc3c2CCC3)c(OC)cc1Cl | active: 2.62 µM | 
24 | O=C(NC(c1ccccc1)c1ccccc1)c1ccc(S(=O)(=O)C(F)F)cc1 | inconclusive [inhibitor, full curve, poor fit] | 

Row | Structure (SMILES) | Potency | activity change, negative = inhibition
25 | O=C(N/N=C/c1cccnc1)c1ccccc1[N+](=O)[O-] |  | inactive: 2.42%
26 | CC1CCC(C(C)C)C(OCC(O)CNC(C)(C)C)C1 (configuration not stated) | inconclusive [inhibitor, partial curve, poor fit] | 
27 | COC(=O)C1(C)NC(c2ccccc2OC)C2C(=O)N(c3ccccc3)C(=O)C21 (configuration not stated) |  | inactive: -7.51%
28 | CCCOc1ccccc1/C=N/NC(=O)C1CC1 | inconclusive [inhibitor, partial curve, poor fit] | 
29 | COc1ccc(-c2noc(CSc3nnc(-c4ccncc4)n3-c3ccc(F)cc3)n2)cc1OC | inconclusive [inhibitor, single point] | 
30 | COc1ccc(CNC(=O)C2CCC(CNS(=O)(=O)c3ccccc3)CC2)cc1 (configuration not stated) | active: 3.7 µM | 
31 | CC1=C/C(=N\NC(=S)Nc2cccnc2)CC(C)(C)C1 | inconclusive [inhibitor, partial curve, poor fit] | 
32 | COc1ccc(Br)cc1CN(C)C(=O)c1ccncc1 |  | inactive: -1.67%
33 | CC(Sc1nnc(COc2ccccc2)n1Cc1ccccc1)C(=O)O (configuration not stated) |  | inactive: 36.8%
34 | CC(=O)Nc1cccc(C(=O)NCCc2ccco2)c1 |  | inactive: 119%
35 | CC(C)(C)C1CCc2c(sc(NC(=O)C3CCCO3)c2C(N)=O)C1 (configuration not stated) | inconclusive [inhibitor, partial curve, poor fit] | 
36 | COC(=O)[C@H]1C[C@@H]1[C@H](NC(=O)c1ccccc1)c1ccccc1 |  | inactive: 33.5%
37 | CCOC(=O)c1ccc(NC(=S)NCC(O)c2ccccc2)cc1 (configuration not stated) | inconclusive [inhibitor, single point] | 
38 | CCCn1c2c(c(O)c(C(=O)Nc3ccc(OC)cc3)c1=O)CCCC2 | inconclusive [inhibitor, single point] | 
39 | CCOC(=O)c1c(NC(=O)CSc2n[nH]c(-c3ccco3)n2)sc(C)c1C |  | inactive: 0.367%
40 | CCCCNS(=O)(=O)c1ccc(NC(=O)Cc2ccc(OC)cc2)cc1 |  | inactive: -0.773% [at 5.75 µM]
41 | O=C(Nc1nc2ccc([N+](=O)[O-])cc2s1)c1ccco1 |  | inactive: 156%
42 | COc1ccc(Cn2nnc3c(=O)[nH]c(C4CCCN(C(=O)c5ccccc5)C4)nc32)cc1 (configuration not stated) | inconclusive [inhibitor, single point] | 
43 | CN1CCN(C(=O)C2=C[C@H](c3csc4ccccc34)C[C@H](OCc3ccc(CO)cc3)O2)CC1 | inconclusive [inhibitor, single point] | 
44 | O=S(=O)(Nc1cccc2cccnc12)c1ccccc1 | active: 3.7 µM | 
45 | O=c1c2nccnc2[nH]c(=S)n1Cc1ccccc1Cl | inconclusive [inhibitor, single point] | 
46 | COc1ccc([C@]23Cc4cc(OC)c(OC)cc4C(O2)c2c(cc(-c4ccccc4)oc2=O)O3)cc1 | inconclusive [inhibitor, partial curve, poor fit] | 
47 | COc1ccc(C(=O)N/C(=C\c2cn(C)c3ccccc23)C(=O)NCCCn2ccnc2)cc1 | inconclusive [inhibitor, single point] | 
48 | COc1cc2nc(SCc3c(C)noc3C)n(CCC3=CCCCC3)c(=O)c2cc1OC | inconclusive [inhibitor, full curve, poor fit] | 

Row | Structure (SMILES) | Potency | activity change, negative = inhibition
49 | Cc1cccc(N(C(=O)Cn2nnc3ccccc32)C(C(=O)NC(C)(C)C)c2ccsc2)c1C (configuration not stated) | inconclusive [inhibitor, single point] | 
50 | O=C(c1cc(-c2ccc(Cl)cc2)n(-c2cc(Cl)ccc2Cl)n1)N1CCOCC1 | inconclusive [inhibitor, partial curve, poor fit] | 
51 | N/C(=N\OC(=O)COc1ccccc1)c1ccncc1 |  | inactive: 64.5%
52 | O=C(Nc1ccccc1N1CCN(C(=O)c2ccc(Cl)cc2)CC1)c1ccc2c(c1)OCO2 | active: 3.7 µM | 
53 | Cc1cccc(N2CCN(C(=O)c3cc(COc4ccc(F)c(F)c4)on3)CC2)n1 |  | inactive: 26.5%
54 | O=C(O)C/C(=C\c1ccc(N2CCOCC2)c([N+](=O)[O-])c1)c1nc2ccccc2s1 | inconclusive [inhibitor, single point] | 
55 | Cc1cccc(NC(=O)Cn2c(=O)n(CCC(=O)NC3CCCC3)c(=O)c3ccccc32)c1 |  | inactive: 4.16%
56 | CCOC(=O)c1noc(C)c1C(=O)Nc1nccs1 | inconclusive [inhibitor, single point] | 
57 | COc1ccccc1NS(=O)(=O)c1ccc(C(=O)N2CCCCCCC2)cc1 | inconclusive [inhibitor, single point] | 
58 | Nc1nc(Nc2cccc(F)c2)nc(NCCO)c1[N+](=O)[O-] | inconclusive [inhibitor, single point] | 
59 | CCOc1ccc(CCNC(=O)COC(=O)CNS(=O)(=O)c2ccc(C)cc2)cc1OCC | inconclusive [inhibitor, single point] | 
60 | O=C(CSc1nccc(-c2cccs2)n1)Nc1ccccc1 |  | inactive: -90.6%
61 | Cc1occc1C(=O)Nc1ccc2c(c1)CCC2 |  | inactive: 112%
62 | Cc1nc2sccn2c(=O)c1CCN1CCC(=C(c2ccc(F)cc2)c2ccc(F)cc2)CC1 | active: 15.1 µM and active: 10.4 µM | 
63 | Cc1ccc(-c2nc(NC(=O)c3ccc(S(=O)(=O)N(CCC#N)CCC#N)cc3)sc2-c2ccccc2)cc1 |  | inactive: -25.1%
64 | CC[N+](CC)(CCO)CCCN1C(=O)C2CC=C(Cl)CC2C1=O (configuration not stated) |  | inactive: -12.3%
65 | C/C(N)=C(/C#N)C(=O)COC(=O)c1cc(-c2ccc(Br)cc2)nc2ccccc12 |  | inactive: 4.31%
66 | O=C(COC(=O)C1CCC1)Nc1cccc(S(=O)(=O)N2CCOCC2)c1 |  | inactive: 13.5%
67 | COc1cc(NC(=O)c2ccccc2)c(OC)cc1NC(=O)Cc1cccs1 | inconclusive [inhibitor, single point] | 
68 | CCN(CC)c1ccc(/C=N/N2CCN(Cc3ccc(Cl)cc3)CC2)c(O)c1 | inconclusive [inhibitor, single point] | 
69 | O=C(OCc1cc([N+](=O)[O-])cc2c1OCOC2)c1cccnc1SC(F)F | inconclusive [inhibitor, single point] | 
70 | O=C(NCc1ccc(Cl)cc1)C1CCN(S(=O)(=O)c2ccc(N3CCCC3=O)cc2)CC1 |  | inactive: -17.7%
71 | COc1ccccc1NC(=O)C12CC3CC(C1)CC(c1ccc(C)cc1)(C3)C2 | active: 0.657 µM | 
72 | Cc1ccc(-n2ccnc2SCC(=O)c2c(N)n(C3CC3)c(=O)[nH]c2=O)cc1C | inconclusive [inhibitor, single point] | 
